The list shows a part of the results.
System: S. aureus RN4220
Assay: growth inhibition call (relative growth <= 0.2)
Details: 50 µM

Growth inhibition call, inactive:
COc1ccc(S(=O)(=O)Nc2ccc3c(c2)CC(=O)N([C@@H](C)CO)C[C@H](C)[C@H](CN(C)S(=O)(=O)c2cccs2)O3)cc1
C[C@H](CO)N1C[C@H](C)[C@H](CN(C)Cc2ccc(C(=O)Nc3ccccc3N)cc2)Oc2c(NC(=O)c3ccc(-c4nccs4)cc3)cccc2C1=O
C[C@@H]1CN([C@@H](C)CO)C(=O)c2cccc(NC(=O)c3ccncc3)c2O[C@@H]1CN(C)Cc1ccc(-c2ccccc2)cc1
C[C@@H]1CN([C@@H](C)CO)C(=O)c2cc(NC(=O)NC3CCCCC3)ccc2O[C@H]1CN(C)Cc1ccc(C(F)(F)F)cc1
CC(C)NC(=O)N(C)C[C@H]1OCCCC[C@H](C)Oc2ccc(NC(=O)C3CCCCC3)cc2C(=O)N([C@H](C)CO)C[C@H]1C
C[C@H]1CN([C@@H](C)CO)C(=O)Cc2cc(NC(=O)NC3CCCCC3)ccc2O[C@@H]1CN(C)Cc1ccc(Oc2ccccc2)cc1
C[C@H]1CN([C@@H](C)CO)C(=O)c2cc(NC(=O)CCC(F)(F)F)ccc2O[C@H]1CN(C)Cc1ccc(Cl)c(Cl)c1
Cc1ccc(-c2ccc3c(c2)O[C@H](CN(C)C(=O)NC(C)C)[C@H](C)CN([C@@H](C)CO)S3(=O)=O)cc1
COc1ccc(NC(=O)Nc2ccc3c(c2)C(=O)N([C@H](C)CO)C[C@H](C)[C@H](CN(C)C(=O)Nc2ccc(C(F)(F)F)cc2)O3)cc1
COc1ccc(NC(=O)Nc2ccc3c(c2)C(=O)N([C@@H](C)CO)C[C@@H](C)[C@H](CN(C)C(=O)Cc2ccccc2)OCCCC[C@@H](C)O3)cc1
C[C@@H]1CN([C@H](C)CO)C(=O)CCCn2cc(nn2)CO[C@@H]1CN(C)C(=O)Nc1ccc2c(c1)OCCO2
C[C@@H]1CN([C@@H](C)CO)C(=O)c2cccc(NS(=O)(=O)c3cccs3)c2O[C@H]1CN(C)Cc1ccc(Cl)c(Cl)c1
C[C@@H]1CN([C@H](C)CO)C(=O)Cc2cc(NC(=O)Nc3ccc(C(F)(F)F)cc3)ccc2O[C@H]1CN(C)Cc1ccncc1
C[C@@H]1CN([C@@H](C)CO)C(=O)c2cccc(NS(=O)(=O)c3ccccc3)c2O[C@@H]1CN(C)S(=O)(=O)c1cn(C)cn1
Cc1ccc(S(=O)(=O)N(C)C[C@H]2Oc3ccc(NS(C)(=O)=O)cc3CC(=O)N([C@@H](C)CO)C[C@H]2C)cc1
Cc1ccc(S(=O)(=O)Nc2ccc3c(c2)C(=O)N([C@H](C)CO)C[C@H](C)[C@@H](CN(C)C(=O)Nc2ccc4c(c2)OCO4)OCCCC[C@H](C)O3)cc1
CCOC(=O)[C@H]1CSCCN1

From the antibiotic and cytotoxicity screens of Wong et al. (2023)
